Test results as given in patent US10548901B2, “Meloxicam for the treatment of respiratory diseases in pigs” (Boehringer Ingelheim Vetmedica GmbH, priority 2004, dated 2020).
Read-outs that look alike come from different tables or passages of the source.

Experiments:
[1] = clinical field study; cited from earlier work
[2] = test system: Swine Influenza Virus (SIV); format: in vivo, pigs
[3] = test system: Actinobacillus pleuropneumoniae; conditions: pigs; cited from earlier work
[4] = test system: endotoxin-induced respiratory failure; conditions: pigs; cited from earlier work

In the case of CC(C(=O)O)c1cccc(C(=O)c2ccccc2)c1 (stereo not drawn) [Ketoprofen], the “effect on clinical score, relapse, or cure rate” value [1] is listed as “no effect”.
In the case of Cc1cnc(NC(=O)C2=C(O)c3ccccc3S(=O)(=O)N2C)s1 [meloxicam, 4-hydroxy-2-methyl-N-(5-methyl-2-thiazolyl)-2H-1,2-benzothiazine-3-carboxamide-1,1-dioxide], the “mean daily weight gain” value ([2]; interval study day 0 to 7, group A, control 257 g) is reported as 557 g, the “mean daily weight gain” value ([2]; interval study day 0 to 14, group B, control 486 g) is reported as 629 g and the “percentage of lung tissue affected with SIV-related lesions (median value)” value ([2]; study day 7, meloxicam granules in drinking water, 0.8 mg/kg/day for 7 days, control 23.8%) is reported as 8.9%.
For Cc1c(Nc2ncccc2C(=O)O)cccc1C(F)(F)F [flunixin], the “effects on lung lesions” value [3] is listed as “no effects”.
For COc1ccc2c(c1)c(CC(=O)O)c(C)n2C(=O)c1ccc(Cl)cc1 [Indomethacin], the “experimental endotoxin-induced respiratory failure” value [4] is listed as “alleviated”.
